The results in this text go back to PubChem BioAssay AID1159614 (National Center for Advancing Translational Sciences (NCATS), 2016).

The campaign covered roughly 45,000 compounds. About 65 (0.1%) were called active. The call rests on the fitted dose curve; in most records, active means well fitted activation curve with a large enough effect; inconclusive means small, poorly fitted or top-dose-only effect; inactive means no such curve, though single readings can be large or run the other way. The list shows a part of the results.

Chain of UniProt P54803 (P54803 whole entry, looked up): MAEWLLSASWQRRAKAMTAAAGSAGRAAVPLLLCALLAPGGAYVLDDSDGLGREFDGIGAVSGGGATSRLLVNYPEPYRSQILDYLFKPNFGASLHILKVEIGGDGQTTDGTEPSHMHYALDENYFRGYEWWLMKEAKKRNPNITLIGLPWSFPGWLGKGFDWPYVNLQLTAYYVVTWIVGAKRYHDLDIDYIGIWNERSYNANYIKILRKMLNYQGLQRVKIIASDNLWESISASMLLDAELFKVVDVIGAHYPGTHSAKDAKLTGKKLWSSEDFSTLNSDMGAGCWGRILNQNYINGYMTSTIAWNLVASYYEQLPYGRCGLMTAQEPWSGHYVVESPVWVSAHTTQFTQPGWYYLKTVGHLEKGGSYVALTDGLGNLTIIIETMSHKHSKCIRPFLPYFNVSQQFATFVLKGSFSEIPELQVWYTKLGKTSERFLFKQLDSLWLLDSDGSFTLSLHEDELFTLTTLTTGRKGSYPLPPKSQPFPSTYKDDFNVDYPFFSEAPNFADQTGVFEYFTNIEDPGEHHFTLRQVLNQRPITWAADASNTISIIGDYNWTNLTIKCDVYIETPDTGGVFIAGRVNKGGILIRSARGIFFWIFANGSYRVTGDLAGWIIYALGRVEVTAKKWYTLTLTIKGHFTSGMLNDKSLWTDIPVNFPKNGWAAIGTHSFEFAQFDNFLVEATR

The target in this assay is Galactocerebrosidase (Homo sapiens) (UniProt P54803). As to the kind of experiment: A Novel Cell-Based Assay to Identify Small Molecules for B -Galactocerebrosidase. Further: 0% is about no effect; nearly all actives have a fitted effect of over 65% in size. To be noted: 145M-Twi-hGALC-G270D cells (Twitcher mouse brain line with human GALC G270D), HMU-beta-Gal fluorescence, 48 h; series mostly up to 57.5 µM; activation: at the top concentration. The procedure, abridged:
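Fluorogenic HMU-b-Gal hydrolysis (0.1 mM final, pH 5.2 citrate-phosphate with 1 mg/mL sodium taurocholate; carbonate stop buffer) measures mutant GALC activity after compound treatment of live 145M-Twi Twitcher brain cells stably carrying human GALC-G270D, with wild-type GALC line alongside; activation sought.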
With `CCC(=O)Nc1cc(-c2cn3cccnc3n2)ccc1OC`, the “activation” value is inactive: -0.688%.

For `COc1ccc(NC(=O)c2cc(-c3ccc(F)cc3)no2)cc1OC`, the “activation” value was inactive: -7.72%.

Regarding `Cc1c(Cl)cccc1NC(=O)Cn1c(=O)cc(C)c2c(C)nn(-c3cccc(F)c3)c21`, the “activation” value is inactive: -10.9%.

Turning to `O=C(OCC(O)CO)c1ccccc1Nc1ccnc2c(C(F)(F)F)cccc12` (stereo unspecified), the “activation” value was inactive: -12.7%.

Turning to `COc1ccccc1Cc1nc2ccccc2nc1SCC(=O)Nc1c(C)cccc1C`, the “activation” value was inactive: -5.04%.

Consider `O=C(Cn1ncn2cccc2c1=O)NCc1cccc(Br)c1`, for which the “activation” value is inactive: -3.36%.

As to `COc1ccc(N(CC(C)C)S(=O)(=O)c2nnc(NC(=O)c3ccco3)s2)cc1`, the “activation” value was inactive: -16.8%.

Regarding `CCn1c(C)c(C)c2cc(C(=O)N3CCN(c4ccccc4)CC3)ccc21`, the “activation” value was inactive: -4.31%.

As to `CCN(C(=O)CCS(=O)(=O)c1cc2c(cc1C)NC(=O)CO2)c1cccc(C)c1`, the “activation” value was inactive: -0.974%.

Consider `CN(C)CCN(Cc1ccccc1)S(=O)(=O)c1csc(C(N)=O)c1`, for which the “activation” value is inactive: -11.7%.

Turning to `Cc1cc(NC(=O)c2ccco2)cc(-c2nc3ccccc3o2)c1O`, the “activation” value is inactive: -17.5%.

As to `CCCNC(=O)Cn1nc(-c2ccc(C)cc2)c2cnc3ccc(CC)cc3c21`, the “activation” value was inactive: -3.83%.

For `Cc1ccccc1C(=O)N(Cc1ccc(N(C)C)cc1)CC1CCCO1` (stereo unspecified), the “activation” value was inactive: 0.302%.

With `Cc1ccc(N2CCN(C(=O)NCc3noc4ccc(C)cc34)CC2)c(C)c1`, the “activation” value is inactive: -17.7%.

Turning to `Cc1cccc(NC(=O)c2ccc(CNS(=O)(=O)c3ccc4c(c3)C(C)(C)C(=O)N4C)cc2)c1`, the “activation” value is inactive: 5.09%.

On to `O=C(CCC1N=C2c3ccccc3N=C(SCC(=O)Nc3ccc(F)cc3)N2C1=O)NCc1cccs1` (stereo unspecified), for which the “activation” value was inactive: -15.6%.

Consider `COC(=O)c1ccccc1NC(=O)C1CCCN(c2ncnc3onc(C)c23)C1` (stereo unspecified), for which the “activation” value is inactive: -6.87%.

With `Cc1ccc(CNC(=O)c2sc3nc4n(c(=O)c3c2C)CCCCC4)cc1`, the “activation” value is inactive: -9.94%.

Consider `CCOC(=O)c1noc2ncnc(NCc3ccccc3OC)c12`, for which the “activation” value is inactive: -8.62%.

Take `COc1ccccc1N=C1SC(C(=O)Nc2ccccc2OC)CC(=O)N1C` (stereo unspecified): the “activation” value is inactive: -3%.

Consider `COc1ccccc1NC(=O)CSC1=Nc2ccccc2C2=NC(CC(=O)NCc3ccc4c(c3)OCO4)C(=O)N12` (stereo unspecified), for which the “activation” value was inactive: 5.24%.

Regarding `O=C(NCCOCCn1c(=O)oc2ccccc21)Nc1cccc(Cl)c1`, the “activation” value was inactive: -15.6%.

As for `COc1cc(OC)c(N(C)C(=O)c2cc3c(=O)oc4ccccc4c3s2)cc1Cl`, the “activation” value was inactive: 1.22%.

As to `O=c1c2ccccc2n2c(-c3ccccc3F)nnc2n1CCc1ccccc1`, the “activation” value is inactive: -32.6%.

With `Cc1ccc(C(=O)N(c2ccc(C)cc2)S(=O)(=O)c2ccc(Cl)cc2)cc1`, the “activation” value is inactive: -15.6%.

For `Cc1ccc(-n2nc(C(=O)N(C)Cc3ccccc3)c3c4ccccc4n(C)c3c2=O)cc1`, the “activation” value is inactive: 9.06%.

`CC(C)c1ccc(NC(=O)c2ccc3c(O)c(S(=O)(=O)c4ccccc4)c(=O)[nH]c3c2)cc1`: the “activation” value is inactive: -14.7%.

Turning to `Cc1ccc(NC(=O)C(Cc2ccccc2)N2Cc3ccccc3C2=O)cc1Cl` (stereo unspecified), the “activation” value was inactive: -18.1%.

`Cc1ccc(-n2c(=O)c3c(c4cc(C)ccc4n3C)n(Cc3ccc(F)cc3)c2=O)cc1`: the “activation” value is inactive: -4.12%.

`COc1ccc(C)cc1NC(=O)c1cc(S(=O)(=O)N2CCc3ccccc3C2)ccc1F`: the “activation” value is inactive: -17.5%.

Turning to `CCCn1c(CCC(=O)Nc2ccc(C)c(Cl)c2)nc2cccnc21`, the “activation” value was inactive: -15.6%.

On to `Cc1oc(-c2ccc(C(=O)NCc3ccccc3Cl)cc2)nc1CN1CCc2ccccc21`, for which the “activation” value was inactive: -25%.

In the case of `CCCCNC(=O)CCn1c(=O)c2cccn2c2cccnc21`, the “activation” value was inactive: -4.34%.

In the case of `CCN(C(=O)c1c(C)oc2ncn(CC(C)C)c(=O)c12)c1cccc(Cl)c1`, the “activation” value is inactive: -2.08%.

For `Cc1ccc(S(=O)(=O)C(CNC(=O)C(=O)NCCc2ccc(Cl)cc2)c2cccs2)cc1` (stereo unspecified), the “activation” value was inactive: -3.5%.

With `O=C(CC1N=C2c3ccccc3N=C(SCc3cccc(Cl)c3)N2C1=O)NCCc1ccccc1` (stereo unspecified), the “activation” value is inactive: 1.02%.

On to `Cc1ccc(CCNC(=O)c2c[nH]c3ccc(S(=O)(=O)Nc4cccc(C(F)(F)F)c4)cc3c2=O)cc1`, for which the “activation” value was inactive: -13.5%.

For the molecule `CCC1=C(c2ccc(C)cc2)S(=O)(=O)N=C1N1CCC(C(=O)NCCc2ccc(Cl)cc2)CC1`, the “activation” value was inactive: -15.7%.

On to `COc1ccc(CCNS(=O)(=O)c2cc(-c3onc(C)c3C)ccc2OC)cc1OC`, for which the “activation” value was inactive: -7.86%.

Regarding `CCOc1ccc(CCNC(=O)c2ccc3c(c2)N(Cc2ccccc2F)C(=O)c2ccccc2S3=O)cc1OCC` (stereo unspecified), the “activation” value is inactive: -11.4%.

For the molecule `O=C(CCS(=O)(=O)c1cc2c3c(c1)CCN3C(=O)CC2)Nc1cccc(Br)c1`, the “activation” value was inactive: -15.6%.

Turning to `CCCS(=O)(=O)N1CC(=O)N(c2ccc(C)cc2C)C(C)(C(=O)NC2CCCCCC2)C1` (stereo unspecified), the “activation” value was inactive: 2.31%.

In the case of `O=C(Cn1c(=O)nc(-c2ccccc2)c2cc(Cl)ccc21)NCc1ccc(Cl)cc1`, the “activation” value was inactive: -5.23%.

In the case of `CCCCN(C)CCNC(=O)CN1C(=O)CSc2ccc(S(=O)(=O)N3CCCCC3)cc21`, the “activation” value is inactive: -9.94%.

`COc1ccccc1N1CCN(S(=O)(=O)CCNC(=O)Cc2ccc(Cl)cc2)CC1`: the “activation” value was inactive: -20.7%.

For the molecule `O=c1c(S(=O)(=O)c2ccccc2)cn(Cc2cccc(F)c2)c2cc(N3CCCC3)c(F)cc12`, the “activation” value is inactive: -2.21%.

As for `Cc1ccc(C)c(Nc2nn3c(=O)c4cc5c(cc4nc3s2)OCO5)c1`, the “activation” value was inactive: -2.22%.

`CCc1ccc(NC(=O)CSc2nc(=O)n(Cc3ccncc3)c3c2CCC3)cc1`: the “activation” value was inactive: -10.8%.

Turning to `CCN1CCN(CCCNC(=O)Cn2c(-c3cccs3)cc3cc(F)ccc32)CC1`, the “activation” value was inactive: -9.39%.

As to `O=C(COCc1cc(-c2ccc3c(c2)OCO3)on1)Nc1cc(C(F)(F)F)ccc1Cl`, the “activation” value is inactive: -17.7%.

`Cc1cc2c(cc1S(=O)(=O)CCC(=O)N1CCCCC1C)OCC(=O)N2` (stereo unspecified): the “activation” value was inactive: 0.879%.

Regarding `CCOc1ccc(CCNC(=O)CSc2nnnn2-c2ccc(C)cc2C)cc1OCC`, the “activation” value was inactive: -19.7%.

In the case of `CCOc1ccc(NC(=O)N(C)CCc2c(C)nn(C)c2C)cc1`, the “activation” value is inactive: -6.41%.

For the molecule `O=C(NCC(c1cccnc1)N1CCc2ccccc21)c1ccc(F)cc1` (stereo unspecified), the “activation” value is inactive: -14.1%.

Regarding `CCOC(=O)C1=C(CN(C)Cc2ccccc2)NC(=O)NC1c1ccc(OC)cc1` (stereo unspecified), the “activation” value is inactive: -6.27%.

Turning to `CCCCOc1ccccc1C(=O)N(Cc1cccc(F)c1)C1CCS(=O)(=O)C1` (stereo unspecified), the “activation” value is inactive: -14.8%.

As for `Cc1ccc(NC(=O)c2ccc(CNS(=O)(=O)c3ccc4c(c3)C(C)(C)C(=O)N4C)cc2)cc1F`, the “activation” value is inactive: -9.17%.

As for `CCS(=O)(=O)c1ccccc1C(=O)Nc1ccc(-c2nc3ccccc3s2)cc1`, the “activation” value was inactive: -6.77%.

`CC(C)CCNC(=O)CN1C(=O)c2cccnc2Sc2ccccc21`: the “activation” value is inactive: -4.54%.

Turning to `CC(=O)c1cccc(NC(=O)Cc2noc3ccccc23)c1`, the “activation” value was inactive: 4.74%.

For the molecule `CCCCC(=O)NC1(C(F)(F)F)C(=O)Nc2c1c(=O)[nH]c(=O)n2-c1ccc(C)c(C)c1` (stereo unspecified), the “activation” value is inactive: -11.2%.
